Measured values taken from the supplement of paper PMC10037445.
In all, about 2,900 compounds were measured (“NF-kB SEAP reporter activity, fold change vs agonist alone”: median about 0.99, highest 2% from about 2.6 on). The list shows a part of the results.

Legend:
[1] = tested on: RAW-Dual; experiment: NF-kB SEAP reporter activity, fold change vs agonist alone; higher = enhanced NF-kB activity
Method in brief: (§1)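 Cytotoxic wells were those whose IncuCyte confluency was below 70% of agonist controls in both mask sets. The cells were RAW-Dual macrophages at 50,000 cells/well in DMEM on 384-well plates, dosed with 50 nL of library stock by pin tool, stimulated with a PRR agonist 1 h later, and kept at 37 °C, 5% CO2 for 20 hours. IRF and NF-κB reporter activity, as fold change over agonist-alone wells, came from supernatant read by QuantiLuc luminescence and QuantiBlue absorbance, respectively.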

[2] = tested on: RAW-Dual; experiment: NF-kB SEAP reporter activity, fold change vs agonist alone; cytotoxicity flag (confluency mask): not cytotoxic; higher = enhanced NF-kB activity
Method in brief: as §1

[3] = tested on: RAW-Dual; experiment: NF-kB SEAP reporter activity, fold change vs agonist alone; cytotoxicity flag (confluency mask): cytotoxic (confluency <70% of control); higher = enhanced NF-kB activity
Method in brief: as §1

[4] = library stock concentration (final ~1000-fold dilution): 10 mM water, cytotoxicity flag (confluency mask): not cytotoxic, agonist: MPLA (TLR4) […]
[5] = agonist: ODN 1826 (TLR9) 0.5 ug/mL
[6] = agonist: Pam2CSK4 (TLR2/6) 0.1 ug/mL
[7] = agonist: Pam3CSK4 (TLR2/1) 0.1 ug/mL
[8] = library stock concentration (final ~1000-fold dilution): 10 mM, cytotoxicity flag (confluency mask): not cytotoxic, agonist: Imiquimod (TLR7) […]
[9] = library stock concentration (final ~1000-fold dilution): 10 mM, cytotoxicity flag (confluency mask): not cytotoxic, agonist: MPLA (TLR4) […]

## O=C(O)[C@H](O)Cc1ccc(O)c(O)c1
[1]; library stock concentration (final ~1000-fold dilution): 10 mM water, cytotoxicity flag (confluency mask): not cytotoxic, agonist: Imiquimod (TLR7) […]
  NF-kB SEAP reporter activity: 0.919
[1]; [4]
  NF-kB SEAP reporter activity: 1.04

## O=C(O)[C@H](O)Cc1ccc(O)c(O)c1 (library stock concentration (final ~1000-fold dilution): 10 mM water)
[2]; agonist: LPS (TLR4) 0.1 ug/mL
  NF-kB SEAP reporter activity: 1.19
[2]; [5]
  NF-kB SEAP reporter activity: 1.22
[2]; [6]
  NF-kB SEAP reporter activity: 1.1
[2]; [7]
  NF-kB SEAP reporter activity: 1

## Cn1cc(C2=C(c3cccc(N)c3)C(=O)NC2=O)c2ccccc21
[1]; [8]
  NF-kB SEAP reporter activity: 1.55
[1]; [9]
  NF-kB SEAP reporter activity: 1.7

## Cn1cc(C2=C(c3cccc(N)c3)C(=O)NC2=O)c2ccccc21 (library stock concentration (final ~1000-fold dilution): 10 mM)
[2]; agonist: LPS (TLR4) 0.1 ug/mL
  NF-kB SEAP reporter activity: 1.83
[2]; [5]
  NF-kB SEAP reporter activity: 2.18
[2]; [6]
  NF-kB SEAP reporter activity: 1.59
[2]; [7]
  NF-kB SEAP reporter activity: 2.2

## [O-][n+]1cccc(-c2nc3c(Cl)cccc3cc2C(Nc2ncnc3cccnc23)C(F)(F)F)c1 (configuration not stated)
[1]; [8]
  NF-kB SEAP reporter activity: 0.648
[1]; [9]
  NF-kB SEAP reporter activity: 1.56

## [O-][n+]1cccc(-c2nc3c(Cl)cccc3cc2C(Nc2ncnc3cccnc23)C(F)(F)F)c1 (configuration not stated) (library stock concentration (final ~1000-fold dilution): 10 mM)
[2]; agonist: LPS (TLR4) 0.1 ug/mL
  NF-kB SEAP reporter activity: 2.33
[2]; [5]
  NF-kB SEAP reporter activity: 1.3
[2]; [6]
  NF-kB SEAP reporter activity: 0.992
[2]; [7]
  NF-kB SEAP reporter activity: 1.38

## CCCN(CCC)CCc1cccc2c1CC(=O)N2.Cl
[1]; [8]
  NF-kB SEAP reporter activity: 1.22
[1]; [9]
  NF-kB SEAP reporter activity: 1.03

## CCCN(CCC)CCc1cccc2c1CC(=O)N2.Cl (library stock concentration (final ~1000-fold dilution): 10 mM)
[2]; agonist: LPS (TLR4) 0.1 ug/mL
  NF-kB SEAP reporter activity: 1.01
[2]; [5]
  NF-kB SEAP reporter activity: 1.04
[2]; [6]
  NF-kB SEAP reporter activity: 1.06
[2]; [7]
  NF-kB SEAP reporter activity: 1.16

## O=C(CSc1nc2c(c(=O)n1-c1ccccc1)SCC2)Nc1ccc(-c2ccccc2)cn1 (library stock concentration (final ~1000-fold dilution): 10 mM)
[2]; agonist: LPS (TLR4) 0.1 ug/mL
  NF-kB SEAP reporter activity: 1.93
[2]; [5]
  NF-kB SEAP reporter activity: 1.03
[2]; [6]
  NF-kB SEAP reporter activity: 0.764
[2]; [7]
  NF-kB SEAP reporter activity: 0.85

## O=C(CSc1nc2c(c(=O)n1-c1ccccc1)SCC2)Nc1ccc(-c2ccccc2)cn1
[1]; [8]
  NF-kB SEAP reporter activity: 0.962
[1]; [9]
  NF-kB SEAP reporter activity: 1.28

## CNCCCC1c2ccccc2C=Cc2ccccc21.Cl
[1]; library stock concentration (final ~1000-fold dilution): 10 mM, cytotoxicity flag (confluency mask): cytotoxic (confluency <70% of control), agonist: Imiquimod (TLR7) […]
  NF-kB SEAP reporter activity: 1.28
[1]; library stock concentration (final ~1000-fold dilution): 10 mM, cytotoxicity flag (confluency mask): cytotoxic (confluency <70% of control), agonist: MPLA (TLR4) […]
  NF-kB SEAP reporter activity: 1.62

## CNCCCC1c2ccccc2C=Cc2ccccc21.Cl (library stock concentration (final ~1000-fold dilution): 10 mM)
[3]; agonist: LPS (TLR4) 0.1 ug/mL
  NF-kB SEAP reporter activity: 0.947
[3]; [5]
  NF-kB SEAP reporter activity: 0.644
[3]; [6]
  NF-kB SEAP reporter activity: 0.63
[3]; [7]
  NF-kB SEAP reporter activity: 0.687

## CCCc1nn(C)c2c(=O)[nH]c(-c3cc(S(=O)(=O)N4CCN(C)CC4)ccc3OCC)nc12
[1]; [4]
  NF-kB SEAP reporter activity: 1

## CCCc1nn(C)c2c(=O)[nH]c(-c3cc(S(=O)(=O)N4CCN(C)CC4)ccc3OCC)nc12 (library stock concentration (final ~1000-fold dilution): 10 mM water)
[2]; agonist: LPS (TLR4) 0.1 ug/mL
  NF-kB SEAP reporter activity: 1.15
[2]; [5]
  NF-kB SEAP reporter activity: 1.16
[2]; [6]
  NF-kB SEAP reporter activity: 1.13
[2]; [7]
  NF-kB SEAP reporter activity: 1.05

## CC(OC1OCCN(Cc2nn(P(=O)(O)O)c(=O)[nH]2)C1c1ccc(F)cc1)c1cc(C(F)(F)F)cc(C(F)(F)F)c1.CNCC(O)C(O)C(O)C(O)CO.CNCC(O)C(O)C(O)C(O)CO (configuration not stated) (library stock concentration (final ~1000-fold dilution): 10 mM)
[2]; agonist: LPS (TLR4) 0.1 ug/mL
  NF-kB SEAP reporter activity: 0.278
[2]; [5]
  NF-kB SEAP reporter activity: 0.301
[2]; [6]
  NF-kB SEAP reporter activity: 0.275
[2]; [7]
  NF-kB SEAP reporter activity: 0.189

## CC(OC1OCCN(Cc2nn(P(=O)(O)O)c(=O)[nH]2)C1c1ccc(F)cc1)c1cc(C(F)(F)F)cc(C(F)(F)F)c1.CNCC(O)C(O)C(O)C(O)CO.CNCC(O)C(O)C(O)C(O)CO (configuration not stated)
[1]; [8]
  NF-kB SEAP reporter activity: 0.547
[1]; [9]
  NF-kB SEAP reporter activity: 0.398
